Laboratory results as given in the supplement of paper PMC8728848.
This is one part of the list.

Legend:
Assay in all cases: glycan array binding signal (z-score within array); higher = stronger binding
Conditions in all cases: glycan notation: IUPAC condensed, linker removed
[1] = molecular target: Neu5Ac(a2-3)Gal(b1-4)GlcNAc(b1-3)[Neu5Ac(a2-3)Gal(b1-4)GlcNAc(b1-6)]GalNAc
Outline: (§1)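 Columns mapping to the same glycan were averaged after glycan names were converted to IUPAC-condensed notation. The data come from 3228 arrays in the Consortium for Functional Glycomics database, limited to those with an available protein sequence. Binding is reported as a within-array Z-score averaged across arrays of one protein sequence and across linkers.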

[2] = molecular target: Neu5Ac(a2-3)Gal(b1-4)GlcNAc(b1-6)GalNAc
Outline: as §1

[3] = molecular target: Neu5Ac(a2-3)Gal(b1-4)GlcNAc(b1-6)[Gal(b1-3)]GalNAc
Outline: as §1

[4] = molecular target: Neu5Ac(a2-3)Gal(b1-4)GlcNAc(b1-6)[Neu5Ac(a2-3)Gal(b1-3)]GalNAc
Outline: as §1

[5] = molecular target: Neu5Ac(a2-3)Gal(b1-4)GlcNAc6S
Outline: as §1

[6] = molecular target: Neu5Ac(a2-3)Gal(b1-4)[Fuc(a1-3)]GlcNAc
Outline: as §1

[7] = molecular target: Neu5Ac(a2-3)Gal(b1-4)[Fuc(a1-3)]GlcNAc(b1-2)Man
Outline: as §1

[8] = molecular target: Neu5Ac(a2-3)Gal(b1-4)[Fuc(a1-3)]GlcNAc(b1-3)Gal
Outline: as §1

[9] = molecular target: Neu5Ac(a2-3)Gal(b1-4)[Fuc(a1-3)]GlcNAc(b1-3)Gal(b1-4)GlcNAc
Outline: as §1

[10] = molecular target: Neu5Ac(a2-3)Gal(b1-4)[Fuc(a1-3)]GlcNAc(b1-3)Gal(b1-4)[Fuc(a1-3)]GlcNAc(b1-3)Gal(b1-4)[Fuc(a1-3)]GlcNAc
Outline: as §1

[11] = molecular target: Neu5Ac(a2-3)Gal(b1-4)[Fuc(a1-3)]GlcNAc(b1-3)GalNAc
Outline: as §1

[12] = molecular target: Neu5Ac(a2-3)Gal(b1-4)[Fuc(a1-3)]GlcNAc(b1-6)[Gal(b1-3)]GalNAc
Outline: as §1

[13] = molecular target: Neu5Ac(a2-3)Gal(b1-4)[Fuc(a1-3)]GlcNAc(b1-6)[Neu5Ac(a2-3)Gal(b1-3)]GalNAc
Outline: as §1

[14] = molecular target: Neu5Ac(a2-3)Gal(b1-4)[Fuc(a1-3)]GlcNAc6S
Outline: as §1

[15] = molecular target: Neu5Ac(a2-3)Gal6S(b1-4)GlcNAc
Outline: as §1

[16] = molecular target: Neu5Ac(a2-3)Gal6S(b1-4)[Fuc(a1-3)]GlcNAc
Outline: as §1

Neu5Ac(a2-3)GalNAc = molecular target: Neu5Ac(a2-3)GalNAc
Outline: as §1

[17] = molecular target: Neu5Ac(a2-3)GalNAc(b1-4)GlcNAc
Outline: as §1

[18] = molecular target: Neu5Ac(a2-3)[GalNAc(b1-4)]Gal(b1-4)Glc
Outline: as §1

[19] = molecular target: Neu5Ac(a2-3)[GalNAc(b1-4)]Gal(b1-4)GlcNAc
Outline: as §1

[20] = molecular target: Neu5Ac(a2-3)[GalNAc(b1-4)]Gal(b1-4)GlcNAc(b1-3)GalNAc
Outline: as §1

[21] = molecular target: Neu5Ac(a2-3)[Neu5Ac(a2-6)]GalNAc
Outline: as §1

Neu5Ac(a2-6)Gal = molecular target: Neu5Ac(a2-6)Gal
Outline: as §1

[22] = molecular target: Neu5Ac(a2-6)Gal(b1-3)GlcNAc(b1-3)[Gal(b1-4)GlcNAc(b1-6)]Gal(b1-4)Glc
Outline: as §1

Neu5Ac(a2-6)Gal(b1-4)Glc = molecular target: Neu5Ac(a2-6)Gal(b1-4)Glc
Outline: as §1

[23] = molecular target: Neu5Ac(a2-6)Gal(b1-4)GlcNAc
Outline: as §1

[24] = molecular target: Neu5Ac(a2-6)Gal(b1-4)GlcNAc(b1-2)Man
Outline: as §1

[25] = molecular target: Neu5Ac(a2-6)Gal(b1-4)GlcNAc(b1-2)Man(a1-3)Man(b1-4)GlcNAc(b1-4)GlcNAc
Outline: as §1

[26] = molecular target: Neu5Ac(a2-6)Gal(b1-4)GlcNAc(b1-2)Man(a1-3)[Gal(b1-4)GlcNAc(b1-2)Man(a1-6)]Man(b1-4)GlcNAc(b1-4)GlcNAc
Outline: as §1

[27] = molecular target: Neu5Ac(a2-6)Gal(b1-4)GlcNAc(b1-2)Man(a1-3)[GlcNAc(b1-2)Man(a1-6)]Man(b1-4)GlcNAc(b1-4)GlcNAc
Outline: as §1

[28] = molecular target: Neu5Ac(a2-6)Gal(b1-4)GlcNAc(b1-2)Man(a1-3)[GlcNAc(b1-4)][Neu5Ac(a2-6)Gal(b1-4)GlcNAc(b1-2)Man(a1-6)]Man(b1-4)GlcNAc(b1-4)GlcNAc
Outline: as §1

[29] = molecular target: Neu5Ac(a2-6)Gal(b1-4)GlcNAc(b1-2)Man(a1-3)[Man(a1-6)]Man(b1-4)GlcNAc(b1-4)GlcNAc
Outline: as §1

[30] = molecular target: Neu5Ac(a2-6)Gal(b1-4)GlcNAc(b1-2)Man(a1-3)[Neu5Ac(a2-3)Gal(b1-4)GlcNAc(b1-2)Man(a1-6)]Man(b1-4)GlcNAc(b1-4)GlcNAc
Outline: as §1

[31] = molecular target: Neu5Ac(a2-6)Gal(b1-4)GlcNAc(b1-2)Man(a1-3)[Neu5Ac(a2-6)Gal(b1-4)GlcNAc(b1-2)Man(a1-6)]Man(b1-4)GlcNAc(b1-4)GlcNAc
Outline: as §1

[32] = molecular target: Neu5Ac(a2-6)Gal(b1-4)GlcNAc(b1-2)Man(a1-3)[Neu5Ac(a2-6)Gal(b1-4)GlcNAc(b1-2)Man(a1-6)]Man(b1-4)GlcNAc(b1-4)[Fuc(a1-6)]GlcNAc
Outline: as §1

[33] = molecular target: Neu5Ac(a2-6)Gal(b1-4)GlcNAc(b1-2)Man(a1-6)Man(b1-4)GlcNAc(b1-4)GlcNAc
Outline: as §1

[34] = molecular target: Neu5Ac(a2-6)Gal(b1-4)GlcNAc(b1-2)Man(a1-6)[Gal(b1-4)GlcNAc(b1-2)Man(a1-3)]Man(b1-4)GlcNAc(b1-4)GlcNAc
Outline: as §1

[35] = molecular target: Neu5Ac(a2-6)Gal(b1-4)GlcNAc(b1-2)Man(a1-6)[GlcNAc(b1-2)Man(a1-3)]Man(b1-4)GlcNAc(b1-4)GlcNAc
Outline: as §1

[36] = molecular target: Neu5Ac(a2-6)Gal(b1-4)GlcNAc(b1-2)Man(a1-6)[Man(a1-3)]Man(b1-4)GlcNAc(b1-4)GlcNAc
Outline: as §1

[37] = molecular target: Neu5Ac(a2-6)Gal(b1-4)GlcNAc(b1-2)[Neu5Ac(a2-6)Gal(b1-4)GlcNAc(b1-4)]Man(a1-3)[GlcNAc(b1-4)][Neu5Ac(a2-6)Gal(b1-4)GlcNAc(b1-2)[Neu5Ac(a2-6)Gal(b1-4)GlcNAc(b1-6)]Man(a1-6)]Man(b1-4)GlcNAc(b1-4)GlcNAc
Outline: as §1

[38] = molecular target: Neu5Ac(a2-6)Gal(b1-4)GlcNAc(b1-2)[Neu5Ac(a2-6)Gal(b1-4)GlcNAc(b1-4)]Man(a1-3)[GlcNAc(b1-4)][Neu5Ac(a2-6)Gal(b1-4)GlcNAc(b1-4)Man(a1-6)]Man(b1-4)GlcNAc(b1-4)GlcNAc
Outline: as §1

[39] = molecular target: Neu5Ac(a2-6)Gal(b1-4)GlcNAc(b1-2)[Neu5Ac(a2-6)Gal(b1-4)GlcNAc(b1-6)]Man(a1-6)[Neu5Ac(a2-6)Gal(b1-4)GlcNAc(b1-2)Man(a1-3)][GlcNAc(b1-4)]Man(b1-4)GlcNAc(b1-4)GlcNAc
Outline: as §1

[40] = molecular target: Neu5Ac(a2-6)Gal(b1-4)GlcNAc(b1-3)Gal(b1-3)GlcNAc
Outline: as §1

[41] = molecular target: Neu5Ac(a2-6)Gal(b1-4)GlcNAc(b1-3)Gal(b1-4)GlcNAc
Outline: as §1

[42] = molecular target: Neu5Ac(a2-6)Gal(b1-4)GlcNAc(b1-3)Gal(b1-4)GlcNAc(b1-2)Man(a1-3)[Neu5Ac(a2-6)Gal(b1-4)GlcNAc(b1-3)Gal(b1-4)GlcNAc(b1-2)Man(a1-6)]GalNAc
Outline: as §1

[43] = molecular target: Neu5Ac(a2-6)Gal(b1-4)GlcNAc(b1-3)Gal(b1-4)GlcNAc(b1-3)Gal(b1-4)GlcNAc
Outline: as §1

B1: AT1G73650(15) (Arabidopsis thaliana), F4HRY1 (protein)
chain: MGTVLDSHFLALTAIVTVIYQFIFFVITALFKFDQVTDFAGSTNFVILAVLTLVLKASWHFRQIVLTLLVVVWGLRLGIFLLMETRILQWGEDRRFDEQRGNIVRLIIFWTLQAVWVWTVSLPLTLVNASDGGGSLKPADVIGWTMETWVFGFLIEAAADQQKLSFKNSPENRGKWCDVGVWKYSRHPNYFGEMETLLWWGIFVAASPVLEGAEYLVIFGPLFLTLLLLFVSGIPLLEASADKKHGNSGAYRSYKKTTSPLILFPRGVYGNLPGWFKTVFLFEFPFYSRNLPQEGRLQNSKEKEVKDD
- glycan array binding signal (z-score) [1]: -0.068
- glycan array binding signal (z-score) [2]: -0.594
- glycan array binding signal (z-score) [3]: 0.394
- glycan array binding signal (z-score) [4]: -0.574
- glycan array binding signal (z-score) [5]: -0.562
- glycan array binding signal (z-score) [6]: -0.452
- glycan array binding signal (z-score) [7]: -0.54
- glycan array binding signal (z-score) [8]: -0.714
- glycan array binding signal (z-score) [9]: -0.13
- glycan array binding signal (z-score) [10]: -0.574
- glycan array binding signal (z-score) [11]: 1.32
- glycan array binding signal (z-score) [12]: -0.102
- glycan array binding signal (z-score) [13]: -0.441
- glycan array binding signal (z-score) [14]: -0.364
- glycan array binding signal (z-score) [15]: -0.031
- glycan array binding signal (z-score) [16]: -0.428
- glycan array binding signal (z-score) (Neu5Ac(a2-3)GalNAc): -0.452
- glycan array binding signal (z-score) [17]: -0.772
- glycan array binding signal (z-score) [18]: -0.718
- glycan array binding signal (z-score) [19]: -0.411
- glycan array binding signal (z-score) [20]: 0.584
- glycan array binding signal (z-score) [21]: 1.81
- glycan array binding signal (z-score) (Neu5Ac(a2-6)Gal): -0.58
- glycan array binding signal (z-score) [22]: -0.536
- glycan array binding signal (z-score) (Neu5Ac(a2-6)Gal(b1-4)Glc): -0.604
- glycan array binding signal (z-score) [23]: -0.328
- glycan array binding signal (z-score) [24]: -0.499
- glycan array binding signal (z-score) [25]: -0.274
- glycan array binding signal (z-score) [26]: -0.237
- glycan array binding signal (z-score) [27]: -0.496
- glycan array binding signal (z-score) [28]: -0.593
- glycan array binding signal (z-score) [29]: 0
- glycan array binding signal (z-score) [30]: -0.535
- glycan array binding signal (z-score) [31]: 1.72
- glycan array binding signal (z-score) [32]: -0.34
- glycan array binding signal (z-score) [33]: -0.571
- glycan array binding signal (z-score) [34]: -0.282
- glycan array binding signal (z-score) [35]: -0.513
- glycan array binding signal (z-score) [36]: -0.526
- glycan array binding signal (z-score) [37]: -0.629
- glycan array binding signal (z-score) [38]: -0.379
- glycan array binding signal (z-score) [39]: -0.444
- glycan array binding signal (z-score) [40]: 0.074
- glycan array binding signal (z-score) [41]: -0.696
- glycan array binding signal (z-score) [42]: -0.573
- glycan array binding signal (z-score) [43]: -0.466
